The supplement of paper PMC11417369
The list shows a part of the results.

System: PfHDP1 homeodomain (GST-tagged)
Experiment: gcPBM binding intensity (ln(normalized median fluorescence intensity)); higher = stronger DNA binding
Method in brief: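 Alexa488 anti-GST antibody, scanned at 488 nm, detected GST-tagged P. falciparum DNA-binding domains that had been expressed in E. coli and incubated for 1 h on an Agilent 4 × 180k array. The array carried primer-extended double-stranded 36-bp intergenic genomic probes and negative controls. Binding intensity is the highest Masliner-normalised natural-log median intensity across replicate spots of either orientation of each probe.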

Sequence	gcPBM binding intensity (ln)
ACTAAAAGGCTTAAATGTACATATTATATATATATA [XGTACX_site5897]	8.71
GTTTTTGAGTAGTACACACACAATAAGGATGGATTC [CACACA_site3192]	6.69
ACATCTAGGCTTATTTTATGATACATGTGAATATAT [TGCATGCA_negctrl_site325]	6.32
ATATATATATGTTAGGTGCATATATATTTTGTGGAT [GTGCAC_site9964]	9.74
AATAATATTAATAAAAGTACATGTGTAATATATATA [XGTACX_site5922]	7.31
ATAAAAACTACATTCACACAAAAAAAAATCTACAAA [CACACA_site6109]	6.53
ATAAAGATAATATATGCACACATATAAATATATAAA [CACACA_site9153]	9.85
ATATATATAATATATTGTACATATAATATATATATA [XGTACX_site4792]	8.05
AATTTTCAATAGTATACACACAATTATATATATATA [CACACA_site1116]	8.78
TCTTTTCTCGGAAGGGTGCAAGGAATTAATGAAATA [GTGCAC_site9706]	7.37
TCAATAAATATACATACATGCATACATACATACATA [TGCATGCA_site197]	6.53
GAACATTTATTGTGTGTGCACAATTCTTTTTTAACC [GTGCAC_site9697]	10.2
TGTGTTAATATGAATTTAAACATAAATAAATAAATA [CACACA_negctrl_site1589]	6.24
ATGTTTAATTAAATATGTACTTATTATATTATATGT [XGTACX_site8137]	6.3
TTTAATTTTTATATAACACACATATTGTAATTATGT [CACACA_site4566]	6.46
AGGAATCTACATATATGTACATATATTGATATATTT [XGTACX_site137]	6.45
TATATATGTAGACGTTGTACTTTTTTGTAAGTTTAA [XGTACX_site5638]	6.2
AAAATAAAATCATAAAGTACAAAAAGAAAATAAAAA [XGTACX_site7376]	6.98
CATGACATATCCTGTAGTACAACGTATATATAAGAT [XGTACX_site2577]	6.59

Sequence	gcPBM binding intensity (ln)
TTTAAATTTTTATATTGTACTTTATTTATTTATTTA [XGTACX_site869]	6.22
TGTGTCAAGTTTAATAAACGCATATAATATATATGA [CACACA_negctrl_site607]	6.51
AATGTTTAATATAACGCATGCCTTAATATAGAATGC [TGCATGCA_site463]	6.38
TTTTTTTGCGCGGGAAGAATAAAATTTATAGAATAT [TGCATGCA_negctrl_site306]	6.7
CAGACATTAATAAGTAGTACACAATAATTGACTAGG [XGTACX_site854]	6.44
AATTTACACGTACGTGTACACACAAAAATATGTTTT [CACACA_site8242]	7.37
TATTTTTATAAAAACTGTACATAATAAATAAAAATA [XGTACX_site4743]	6.8
AATCAAAGTAATTTAACACACAATTTTAATACTGTT [CACACA_site7169]	6.23
TTATATGTTTCTTCACGTACGTATAAAAATGAACTT [XGTACX_site1764]	6.55
TATCATGTGCGTGCGTGTACTTAACACACATAATAT [XGTACX_site2404]	7.59
TCATTTATTTTAAGGTGTACCGTTTAAAATCACAAA [XGTACX_site3243]	6.16
ATATTGACAAATATTACACACATATATATATATATA [CACACA_site4079]	9.39
TTGTTCATTATGCACAGTACATAAAAAGTAAAAAAA [XGTACX_site2403]	10.2
GTTTAACTGTTTTATACACACAATGTAGACAATAAA [CACACA_site8967]	6.97
TAAATACATTGACACACACACAAATATGTACATACA [CACACA_site7371]	6.93
ACTTGATTACACAACCACAAGTAATTGAAATTATTT [XGTACX_negctrl_site297]	6.92
GTACAAAAAAAGTGTACACAAAGTAAGACTTTAATT [CACACA_site5068]	6.7
CACTGTAAATAGAAAGTGCAAAAATTGTAAATAAAA [GTGCAC_site9980]	9
TTTCTAAATAATATACACAAAAAAATAAAACACTAA [TGCATGCA_negctrl_site43]	7.18

Sequence	gcPBM binding intensity (ln)
TGAAAAGATAAAAAATGTACATATATATTATATATA [XGTACX_site5678]	6.71
ATACACAATTATTTTCCTATTATGCAAGCAAATTTA [CACACA_negctrl_site1176]	6.74
TTTCTAATTTATATCACACACATATATAAATAGTAA [CACACA_site6156]	6.54
ATATATATAATTTAAAGTACATATTTAAGAATGAAA [XGTACX_site2238]	6.45
AGTAATAATATAATTTGTACATATATATATTATAAA [XGTACX_site7138]	6.48
TACAAAAATGTAGTCACACATATGTATACTTTTATG [CACACA_site5607]	6.27
AGTTTTATGTAGTGTTGTACTTTATACAAATATATA [XGTACX_site990]	6.51
GTATATAATTTATATTGTACGCATATTATTATCATT [XGTACX_site7277]	6.44
TCATTTTACAGATGTGCATGTGAATCAATCTATTTA [TGCATGCA_site787]	7.27
AAAAAAAAAAAAAAAACACACAAACAAATGAATAAA [CACACA_site5769]	6.46
AATATACAAATTACAAGTACAAATCAATATTATATG [XGTACX_site7521]	6.37
TGTAGTTTTTATTTATGTACGCATAACATAATTTAA [XGTACX_site104]	6.5
TATATATATAAATACACACACACATATATATATATA [CACACA_site4585]	9.16
ATTTCTATATATTGTGCATGCCATTACACCAAATAT [TGCATGCA_site813]	7.84
AGAATTTAGAAACAATGTTGTATATGTAATACCTTT [XGTACX_negctrl_site149]	6.23
GATATTATGTGTTTGGTATTTCGATCTTGTCAGGAC [CACACA_negctrl_site426]	6.59
TATATATATAAAAAAAGTACGTATTTAATAAAAATA [XGTACX_site4992]	6.69
TTTTTAATTCAAAAAACTGTATGTTATATGTCAAAT [CACACA_negctrl_site72]	6.31
